Out of some 310,000 compounds screened, about 14,000 (4.5%) showed an effect of 50% or more. The effect is printed as a negative number. Some of the results follow.
The compounds below were run against human ether-à-go-go-related gene (hERG) potassium channel (human, UniProt Q12809) (assay: primary screen, population patch clamp on CHO cells stably expressing hERG).
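Further: peak tail current of the secondary pulse compared with the same well before compound.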

human ether-à-go-go-related gene (hERG) potassium channel, sequence (Q12809 whole entry, looked up): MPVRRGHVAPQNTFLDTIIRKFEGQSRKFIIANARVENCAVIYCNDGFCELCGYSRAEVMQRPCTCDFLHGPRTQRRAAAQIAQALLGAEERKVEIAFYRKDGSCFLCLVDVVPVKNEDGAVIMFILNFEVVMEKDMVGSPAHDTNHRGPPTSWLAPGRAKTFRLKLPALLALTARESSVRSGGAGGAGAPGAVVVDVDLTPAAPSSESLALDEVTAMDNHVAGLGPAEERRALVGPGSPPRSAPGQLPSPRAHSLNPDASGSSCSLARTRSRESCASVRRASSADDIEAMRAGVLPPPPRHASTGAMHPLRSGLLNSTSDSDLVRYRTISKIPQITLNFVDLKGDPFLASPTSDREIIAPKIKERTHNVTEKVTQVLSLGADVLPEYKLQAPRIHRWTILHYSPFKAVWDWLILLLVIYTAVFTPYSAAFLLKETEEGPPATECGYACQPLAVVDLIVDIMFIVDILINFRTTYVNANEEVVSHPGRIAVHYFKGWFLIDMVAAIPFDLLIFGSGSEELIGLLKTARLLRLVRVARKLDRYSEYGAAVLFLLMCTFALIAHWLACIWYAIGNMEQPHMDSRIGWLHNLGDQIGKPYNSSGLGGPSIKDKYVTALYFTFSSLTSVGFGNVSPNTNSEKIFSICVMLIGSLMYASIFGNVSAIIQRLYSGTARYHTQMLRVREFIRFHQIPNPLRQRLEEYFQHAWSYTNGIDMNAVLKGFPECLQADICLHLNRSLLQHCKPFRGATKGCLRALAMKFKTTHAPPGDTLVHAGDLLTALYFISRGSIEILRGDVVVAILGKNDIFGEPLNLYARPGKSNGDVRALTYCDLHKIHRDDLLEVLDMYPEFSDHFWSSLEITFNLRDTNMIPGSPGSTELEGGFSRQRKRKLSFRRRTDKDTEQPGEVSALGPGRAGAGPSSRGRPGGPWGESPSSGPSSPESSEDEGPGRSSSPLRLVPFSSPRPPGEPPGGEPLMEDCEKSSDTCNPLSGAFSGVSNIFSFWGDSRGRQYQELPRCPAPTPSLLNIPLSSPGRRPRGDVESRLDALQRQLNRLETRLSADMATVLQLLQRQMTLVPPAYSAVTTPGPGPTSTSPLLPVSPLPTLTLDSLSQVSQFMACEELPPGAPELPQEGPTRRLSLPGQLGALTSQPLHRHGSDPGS

| Structure (SMILES) | hERG current change (%, negative = inhibition) at 10uM [%] |
| --- | --- |
| CC(C)c1ccc(NC(=O)COc2nncc3ccccc23)cc1 | 14.4 |
| COCCCNC(=O)Nc1ccc(F)cc1F | 12.1 |
| CC(=O)O[C@@]12CO[C@@H]1C[C@@H](O)[C@@]1(C)C(=O)[C@H](O)C3=C(C)[C@@H](OC(=O)[C@H](O)[C@@H](NC(=O)c4ccccc4)c4ccccc4)C[C@@](O)([C@@H](OC(=O)c4ccccc4)C12)C3(C)C (stereo partly drawn) | 5.84 |
| Fc1cccc(Nc2ncnc3[nH]ncc23)c1 | 21.4 |
| CC(=O)c1ccc(NC(=O)Oc2ccccc2)cc1 | -6.44 |
| COc1ccc(S(=O)(=O)N(CC(=O)NCc2ccco2)c2ccc(F)cc2)cc1 | -3.88 |
| Cc1sc(NC(=O)c2ccccc2F)c(CN2CCCCC2C)c1C (stereo not drawn) | -7.58 |
| COc1ccc(-c2nnc(SCCC(=O)O)n2-c2ccccc2)cc1OC | -8.98 |
| Cc1c(O)c(CN2CCCC2)cc2c3c(c(=O)oc12)CCC3 | 15.2 |
| Cc1ccc(SCc2cc(=O)n3[nH]c(C)nc3n2)cc1 | 9.38 |
| O=C(COc1ccc(Cl)cc1Cl)Nc1ccc(-c2ccc(N3CCOCC3)nn2)cc1 | 13.7 |
| O=C(NNc1nc(=O)c2cccnc2s1)c1ccccc1O | 20.9 |
| CN(CC(=O)NCc1ccc(F)cc1)CC(=O)Nc1ccc(Cl)c(C(F)(F)F)c1 | -30.2 |
| COC(=O)CC1SC(=O)NC1=Nc1ccccc1 (stereo not drawn) | 5.89 |
| Cn1c(=O)c([N+](=O)[O-])c(NCCCn2ccnc2)c2ccccc21 | 26.5 |
| O=C(CSc1n[nH]c(-c2ccccc2)n1)c1ccc(O)c(O)c1 | -6.58 |
| CCc1ccccc1OCCCN1CCCC1.O=C(O)C(=O)O | -17.6 |
| CCNc1nc(NC(C)(C)C)nc(N(CC)n2cnnc2)n1 | 0.705 |
| COc1ccc(NC(=S)N2CCCC2c2ccc(OC)c(OC)c2)cc1 (stereo not drawn) | 1.54 |
| CC(C)Cn1c(N)c(C(=O)COC(=O)c2cc(C(F)(F)F)nc3c(C(F)(F)F)cccc23)c(=O)n(C)c1=O | 7.27 |
| N/C(Cc1ccccc1Sc1ccccc1)=N\O.O=C(O)/C=C\C(=O)O | -22.2 |
| COc1ccc(Cc2nc3c4c(ncn3n2)Oc2c(ccc3ccccc23)C4c2ccc(OC)c(OC)c2)cc1 (stereo not drawn) | 14.7 |
| CCCCCCC(C)n1[nH]c(=O)c2c(C)cc(=O)[nH]c21 (stereo not drawn) | -0.0654 |

| Structure (SMILES) | hERG current change (%, negative = inhibition) at 10uM [%] |
| --- | --- |
| Cc1cccc(NC(=O)c2c([N+](=O)[O-])c(C(C)(C)C)nn2C)c1 | 12.7 |
| CC(=O)Nc1ccc(S(=O)(=O)N2CCN(C)CC2)cc1 | 1.48 |
| O=C(O)CCSc1nnc(SCC(=O)NCC(F)(F)F)s1 | 7.55 |
| O=C(NCc1ccco1)c1ccccc1-c1ccccc1 | -2.62 |
| CCOc1cccc2sc(N(CCN(CC)CC)C(=O)c3ccc(S(=O)(=O)N4CCCCC4)cc3)nc12.Cl | -62.4 |
| CNS(=O)(=O)c1cc(NC(=O)CCCNC(=O)c2ccc(Cl)cc2)ccc1C | 17.6 |
| CCN(CC)C(=O)COc1ccc(-c2ccccc2)cc1 | -36 |
| O=C(Nc1nnc(-c2ccco2)o1)C1CC1 | 32.2 |
| O=C(O)CCC(=O)N1CCc2cc(S(=O)(=O)NCc3ccc(Cl)cc3)ccc21 | 4.01 |
| COc1cc(C)ccc1OCc1cc(C(=O)N2CCCCCCC2)no1 | 9.78 |
| COc1ccc(N2CCN(c3ncnc4scc(-c5ccc(F)cc5)c34)CC2)cc1 | -0.492 |
| C(=N\N1CCN(C2c3ccccc3-c3ccccc32)CC1)/c1cccnc1 | 2.63 |
| COc1ccc(-c2[nH]ncc2-c2nc(C)cs2)c(O)c1 | 13.5 |
| O=C(Oc1c(CN2CCOCC2)cc(Cl)c2cccnc12)c1ccc(F)cc1 | -37.8 |
| O=C(CCC1CCCN(Cc2ccc(O)c(Cl)c2)C1)NCc1ccccc1F (stereo not drawn) | -43.2 |
| CCCOC(=O)c1cc(-c2ccc(/C=C3/C(=O)N(C)C(=O)C(C#N)=C3C)o2)ccc1Cl | 8.94 |
| Cc1oc(-c2ccc(Cl)cc2)nc1CS(=O)CC(=O)NCCCN1CCOCC1 (stereo not drawn) | -3.95 |
| CCOc1ccc(C(=O)N2CCN(CCc3ccccc3)CC2)cc1OCC | -78.8 |
| CCOc1ccc(/C=C/C(=O)NCCc2ccc(OC)c(OC)c2)cc1 | -10.5 |
| COc1ccc(N2CCN(CCCNC(=O)C(=O)c3c(C)n(C)c4ccccc34)CC2)cc1 | -64.1 |
| Oc1ccc(-c2[nH]ncc2-c2ccc(Cl)cc2)c(O)c1 | -3.33 |
| COc1ccc(OC)c(/C=N\NC(=O)c2cc3c(ccc4ccccc43)o2)c1 | -5.27 |
| Cc1n[nH]c(=O)c2c(NC(=O)COC(=O)c3cccc(OC(F)F)c3)oc(C)c12 | -18.3 |

| Structure (SMILES) | hERG current change (%, negative = inhibition) at 10uM [%] |
| --- | --- |
| CCCN(CCC)CCNC(=O)C1CCN(Cc2nc(-c3ccc(Cl)cc3)oc2C)CC1 | -60.6 |
| Cn1c(Cn2nnc3ccccc32)nnc1SCC(N)=O | 9.69 |
| CC(=O)c1ccc(-c2nc3c4ccccc4ccn3c2C(C)=O)o1 | -0.222 |
| Cc1cc(C(=O)OCC(=O)NC2(C#N)CCCCC2)c(C)o1 | 8.21 |
| O=C(Nc1ccc(F)cc1)c1cccnc1N1CCOCC1 | 8.37 |
| CCNS(=O)(=O)c1ccc(CCC(=O)Nc2ccccc2)cc1 | 8.65 |
| COC(=O)[C@@H](Cc1ccccc1)NC(=O)NCCc1ccccc1 | 18.8 |
| CC1CCCCC1NC(=O)CSc1nncs1 (stereo not drawn) | 17.1 |
| CCOC(=O)CCSc1nc2c(c(C(F)(F)F)c1C#N)CCC2 | 3.58 |
| Cc1c(NC(=O)CN2C(=O)NC(C)(c3ccc4c(c3)OCCO4)C2=O)c(=O)n(-c2ccccc2)n1C (stereo not drawn) | 10.8 |
| CC1CN(C(=O)c2ccc(COCC(F)(F)F)o2)CC(C)O1 (stereo not drawn) | 5.66 |
| CCn1c(SCC(=O)N2CCCCC2C)nc2c1c(=O)n(C)c(=O)n2C (stereo not drawn) | 7.11 |
| CCN(CC(=O)NCC1CCCO1)S(=O)(=O)c1ccc(Cl)cc1 (stereo not drawn) | 17.6 |
| CS(=O)(=O)c1ccc2nc(NC(=O)c3ccco3)sc2c1 | 1.39 |
| COc1ccc(CN2C(=O)NC3(CCCC3)C2=O)cc1F | -17.3 |
| C=CCC(=O)OCCCCCCOc1ccc(C(=O)O)cc1 | -3.87 |
| N#Cc1c(N)c(C(=O)c2ccc(Cl)cc2)n2c1CCC2 | 5.5 |
| Cc1ncoc1C(=O)Nc1nccs1 | -0.642 |
| C=CCSc1nc(C)c(CC=C)c(=O)[nH]1 | 8.83 |
| CC(=O)c1ccc(OCCCC(=O)OCC(=O)N2CCN(c3ccccc3)CC2)cc1 | 18.7 |
| CCc1ccc(C(=O)NNc2ccc(S(N)(=O)=O)cc2)cc1 | 9.05 |
| O=C(CC1SC(N2CCCC2)=NC1=O)Nc1ccc(C(=O)N2CCN(c3cccc(Cl)c3)CC2)cc1 (stereo not drawn) | 9.33 |
| CC(Sc1nnnn1C1CCCCC1)C(=O)O (stereo not drawn) | 18.3 |

| Structure (SMILES) | hERG current change (%, negative = inhibition) at 10uM [%] |
| --- | --- |
| O=C(Nc1ccc(S(=O)(=O)Nc2nccs2)cc1)c1ccc(=O)[nH]c1 | 2.42 |
| Cc1cc(C)c(C#N)c(SCC(=O)c2cccs2)n1 | -5.5 |
| O=C(Nc1ccc(Cl)c(-c2nc3ccccc3[nH]2)c1)c1cccnc1 | 24 |
| Nc1[nH]c(=S)nc2nc(-c3ccccc3)c(-c3ccccc3)nc12 | -3.31 |
| Cc1cccc(NC(=O)c2oc3c(c2C)C(=O)CC(C)(C)C3)n1 | -14.9 |
| COc1ccc(Cl)cc1NC(=O)N1CCC(C)CC1 | 5.57 |
| CCCCN1CCc2c([nH]c3ccccc23)C1=O | 6.99 |
| O=C(Nc1ncc([N+](=O)[O-])s1)c1ccc2c(c1)OCO2 | 2.75 |
| Cc1ccc(OCC(=O)NCc2n[nH]c(=O)c3ccccc23)cc1 | -38.5 |
| N#Cc1c2n(c3c(=O)n(Cc4ccccc4Cl)cnc13)CCCC2 | -34.3 |
| COc1ccc(NC(=O)C2CCN(C(=O)c3cccs3)CC2)cc1OC | -10.8 |
| O=C(Nc1ccc2c(c1)OCO2)c1cccc2c1C(=O)N(Cc1cccnc1)C2 | -47 |
| Cc1cc(C)cc(N(CC(=O)N2CCC(C)CC2)S(C)(=O)=O)c1 | -38.6 |
| COC(=O)c1ccc2c(c1)C(C)(C)C(/C=C/c1ccc(O)cc1)=[N+]2C.[I-] | -70.9 |
| CCCN(CCC)CCCNC(=O)Cn1cnc2sc(C)c(S(=O)(=O)N3CCCCC3)c2c1=O | 9.2 |
| CC(=O)c1cnc(Nc2ccccc2)s1 | 4.3 |
| COCCSc1nnc(-c2cnccn2)o1 | 15.6 |
| Oc1cc2ccccc2cc1-c1n[nH]c(=S)o1 | 5.84 |
| c1ccc2c(Nc3nc4c(s3)CCCC4)cccc2c1 | 2.23 |
| Cc1nc2ccc(NC(=O)COc3ccccc3C)cc2s1 | 15.5 |
| O=C(CSc1ccc(-c2ccc(-n3cccn3)cc2)nn1)Nc1ccc([N+](=O)[O-])cc1 | 11 |

Source: article PMC4336329 (PLoS ONE, 2015)
